Reference: PMC6919601, “Identification of Plasmodium dipeptidyl aminopeptidase allosteric inhibitors by high throughput screening” (PLoS ONE, 2019)
Among all 110,000 compounds or so, about 230 (0.21%) showed an effect of 50% or more. The list shows a part of the results.

These molecules were tested against DPAP1 (Plasmodium falciparum, UniProt Q8IIJ9) (assay: primary screen, percent inhibition; read by cleavage of a fluorogenic dipeptide substrate; higher = more effect of the substance).
Set-up: species or system P. falciparum D10 trophozoite lysates; single well
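Also: 30 min substrate incubation versus DMSO and 10 µM JCP410 controls.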

DPAP1, sequence (Q8IIJ9 whole entry, looked up): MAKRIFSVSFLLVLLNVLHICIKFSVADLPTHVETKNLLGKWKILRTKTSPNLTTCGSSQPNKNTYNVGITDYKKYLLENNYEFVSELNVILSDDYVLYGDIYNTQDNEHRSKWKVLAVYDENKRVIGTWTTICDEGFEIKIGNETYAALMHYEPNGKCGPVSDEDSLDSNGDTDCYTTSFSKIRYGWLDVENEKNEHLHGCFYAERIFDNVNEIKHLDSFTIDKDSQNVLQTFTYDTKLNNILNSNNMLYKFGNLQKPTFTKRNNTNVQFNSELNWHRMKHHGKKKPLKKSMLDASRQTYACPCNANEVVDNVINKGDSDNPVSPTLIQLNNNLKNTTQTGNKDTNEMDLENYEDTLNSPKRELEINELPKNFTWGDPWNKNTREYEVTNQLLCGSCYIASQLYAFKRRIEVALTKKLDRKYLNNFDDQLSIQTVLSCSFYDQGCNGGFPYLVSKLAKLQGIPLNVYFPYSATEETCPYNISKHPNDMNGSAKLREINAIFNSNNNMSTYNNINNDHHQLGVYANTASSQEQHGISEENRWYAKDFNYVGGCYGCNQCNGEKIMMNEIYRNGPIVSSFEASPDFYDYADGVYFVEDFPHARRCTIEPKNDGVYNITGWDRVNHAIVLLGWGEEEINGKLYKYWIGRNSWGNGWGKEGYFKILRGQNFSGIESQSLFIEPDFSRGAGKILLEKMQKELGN

First: COc1ccc(-c2c(C)nn3c(N4CCC(C(=O)Nc5cc(C)on5)CC4)cc(C)nc23)cc1OC
Second: COc1ccc(CNC(=O)C2CCN(C3=NS(=O)(=O)C(c4ccc(C)c(C)c4)=C3C)CC2)cc1
The “% Inhibition @ 10 uM” value of the first is lower: -0.138% for the first, 1.72% for the second.

Going from `CC(C)c1ccccc1NC(=O)CN(c1cccc(F)c1)S(C)(=O)=O` to `CCc1ccccc1NC(=O)CCCOc1ccccc1OC`, the “% Inhibition @ 10 uM” value rises from -1.6% to 1.39%.

Going from `N=C(NOS(=O)(=O)c1ccccc1)c1cccnc1` to `CCC(C(=O)Nc1cccc(C(C)=O)c1)c1ccccc1` (stereo not shown), the “% Inhibition @ 10 uM” value falls from 3.8% to -0.641%.

Compared with `CCCn1c(=O)c2sccc2n2c(CCCC(=O)NCC(C)c3ccccc3)nnc12` (stereo not shown), `CCCCNC(=O)c1ccc(C2SCC(=O)N2CCc2ccccc2)cc1` (stereo not shown) is lower in “% Inhibition @ 10 uM” value: -3.58% for the first, -4.15% for the second.

Compared with `Cc1c(NC(=O)c2ccc(Cl)cc2)c(=O)n(-c2ccccc2)n1C`, `COC(=O)c1ccc(Cn2nnc3sc(-c4ccccc4)cc3c2=O)cc1` is higher in “% Inhibition @ 10 uM” value: 1.41% for the first, 2.41% for the second.

First: COc1ccc(C(=O)Nc2sc(C(=O)N(C)C)c(C)c2C#N)c(OC)c1
Second: COc1cccc(-n2c(C)c(C(C)=O)c(C(C)=O)c2C)c1
The “% Inhibition @ 10 uM” value of the first is higher: 4.33% for the first, 1% for the second.

First: O=C(OCc1ccccc1Cl)c1ccc(-n2cnnc2)cc1
Second: Cc1cccc(OCC(=O)Nc2ccc(Oc3ccccc3)cc2)c1
The “% Inhibition @ 10 uM” value of the first is lower: -4.04% for the first, 0.755% for the second.

First: Cc1nn(C)c(-c2nnc(S)n2Cc2ccccc2)c1Cl
Second: COCc1cc(O)n2nc(C)c(-c3ccccc3)c2n1
The “% Inhibition @ 10 uM” value of the first is higher: 3.94% for the first, -1.28% for the second.

Compared with `O=S(=O)(c1ccc(Cl)c2ccccc12)N1CCCCCC1`, `Cc1ccc(OCC(=O)Nc2ccc(S(=O)(=O)N3CCCC3)cc2)cc1` is lower in “% Inhibition @ 10 uM” value: 5.41% for the first, -0.992% for the second.

First: CC1=CC2=NC(=O)/C(=C\c3cn(CCOc4ccc(C)cc4)c4ccccc34)C(=N)N2O1
Second: COc1ccc2c(CNCCc3ccccc3OC)c(C(=O)O)n(Cc3cccc(F)c3)c2c1
The “% Inhibition @ 10 uM” value of the first is lower: -5.1% for the first, 3.3% for the second.

First: NC(=O)C1CCN(C(=O)c2[nH]c3ccccc3c2Sc2ccc(Cl)cc2)CC1
Second: CN1CCN(C(=O)c2cc(=O)c3cc(Cl)ccc3o2)CC1
The “% Inhibition @ 10 uM” value of the first is lower: -5.97% for the first, 0.248% for the second.

Compared with `O=C(Nc1ccc(F)cc1)c1ccc2c(c1)C(=O)N(Cc1cccnc1)C2=O`, `COc1cccc(C(=O)Nc2cccc(-c3cn4ccsc4n3)c2)c1` is lower in “% Inhibition @ 10 uM” value: 8.03% for the first, -2.77% for the second.

Going from `CCCC(=O)NC(c1ccc(Cl)cc1Cl)c1ccc2cccnc2c1O` (stereo not shown) to `COc1ccc(NC(=O)C2=C(C)NC(=O)NC2c2ccc(Cl)cc2Cl)cc1` (stereo not shown), the “% Inhibition @ 10 uM” value falls from 0.884% to -3.5%.

First: COc1cc(CN2CCN(Cc3ccc(SC)cc3)CC2)cc2c1OCO2
Second: c1ccc(-c2ccc(CN3CCN(Cc4ccc5c(c4)OCO5)CC3)cc2)cc1
The “% Inhibition @ 10 uM” value of the first is higher: 4.07% for the first, -1.07% for the second.

First: CCOC(=O)c1oc2cc(Cl)c(O)c(CN(C)C)c2c1C
Second: CCO/C(O)=C1\C(C)=NC2=C(C(=O)CCC2)C1c1cccc(Cl)c1 (stereo not shown)
The “% Inhibition @ 10 uM” value of the first is lower: -2.2% for the first, -0.233% for the second.

First: O=c1/c(=C/c2ccccn2)sc2nc3ccccc3n12
Second: Cc1cc(Oc2nc3ccccn3c(=O)c2/C=C(\C#N)C(=O)NCc2ccccc2)ccc1Cl
The “% Inhibition @ 10 uM” value of the first is lower: -2.87% for the first, 0.189% for the second.

Compared with `COCCNC(=O)c1cc(-c2ccc3c(c2)OCO3)on1`, `COCCCNC(=O)c1ccc2nc(N3CCCCC3)sc2c1` is lower in “% Inhibition @ 10 uM” value: 0.628% for the first, -4.15% for the second.

Compared with `COc1ccc2[nH]c3c(=O)n(CCCCC(=O)NCCCOC(C)C)c(=S)[nH]c3c2c1`, `CCCC(C)c1c(O)nc(Nc2nc(C)c3cc(OC)ccc3n2)nc1O` (stereo not shown) is lower in “% Inhibition @ 10 uM” value: 4.14% for the first, -0.357% for the second.

Going from `CCOc1ccc2oc(=O)cc(CN3CCCCC3)c2c1` to `Clc1cccc(OCCN2CCCC2)c1Cl`, the “% Inhibition @ 10 uM” value rises from -3.49% to 3.76%.

First: Nc1ncnc2[nH]c(N3CCCCC3)nc12
Second: NC(=O)C1CCN(C(=O)C2CCN(c3ncnc4c3nc3n4CCCCC3)CC2)CC1
The “% Inhibition @ 10 uM” value of the first is lower: 0.177% for the first, 3.27% for the second.

Compared with `S=C(CN1CCCC1=S)N1CCOCC1`, `O=C(O)c1ccc(OCCNS(=O)(=O)c2cc(Cl)ccc2OCC(=O)N2CCOCC2)cc1` is lower in “% Inhibition @ 10 uM” value: 2.91% for the first, -0.631% for the second.

First: O=C(O)c1nc2nc(-c3cccs3)cc(C(F)(F)F)n2n1
Second: Cc1c(CNC(=O)Cn2nc(C(F)(F)F)cc2C2CC2)cnn1C
The “% Inhibition @ 10 uM” value of the first is lower: 0.345% for the first, 1.34% for the second.

Going from `COc1ccc(C=O)c(O)c1` to `COc1ccc(C(=O)O)cc1S(=O)(=O)N1CCC(C)CC1`, the “% Inhibition @ 10 uM” value rises from -1.08% to 3.04%.

Going from `C=CCNC(=O)C1CC(c2ccc(F)cc2)=NO1` (stereo not shown) to `Cc1cccc(CCNC(=O)c2nc(-c3ccncc3)no2)c1`, the “% Inhibition @ 10 uM” value falls from -0.644% to -3.8%.

Going from `O=C(c1ccco1)N1CCN(Cc2ccco2)CC1` to `O=C(NC12CC3CC(CC(C3)C1)C2)N1CCC(Cc2ccccc2)CC1`, the “% Inhibition @ 10 uM” value rises from 2.16% to 3.53%.

Going from `N#Cc1cccc(NC(=O)COc2ccc(Br)cc2Cl)c1` to `COc1ccc(S(=O)(=O)Nc2cnn(Cc3ccc(Cl)c(Cl)c3)c2)cc1`, the “% Inhibition @ 10 uM” value falls from -5.03% to -5.88%.

Going from `O=S(=O)(c1ccc2c(c1)OCCO2)N1CCC(Oc2ccc(-n3cnnn3)cc2)CC1` to `CC1CN(C(=O)c2ccc(CNS(=O)(=O)c3cccc(Cl)c3)cc2)CC(C)O1` (stereo not shown), the “% Inhibition @ 10 uM” value falls from 3.88% to -7.28%.

First: COc1ccc(-c2c(Cc3ccccc3)nn3c(O)cc(Cc4ccccc4)nc23)cc1
Second: CC(NC(=O)C(Cc1ccccc1)NS(=O)(=O)c1cccc2nsnc12)c1ccccc1 (stereo not shown)
The “% Inhibition @ 10 uM” value of the first is lower: -0.158% for the first, 2% for the second.

Going from `NC(=O)c1c(NC(=O)C2CCCO2)sc2c1CCCCCC2` (stereo not shown) to `Cc1nc(O)c2c3c(sc2n1)CCC3`, the “% Inhibition @ 10 uM” value falls from 35.5% to 0.00784%.

First: Cc1cc2nc(C[n+]3cccc(C(N)=O)c3)[nH]c2cc1C
Second: Cc1ccc(S(=O)(=O)NCc2ccc3[nH]c4c(c3c2)CCCC4)cc1C
The “% Inhibition @ 10 uM” value of the first is lower: 0.722% for the first, 7.02% for the second.

First: Cc1ccc(-c2noc(CCCC(=O)N3CCCCC3)n2)cc1
Second: COc1ccc(C2C(C(=O)c3ccccc3)=C(O)C(=O)N2CC2CCCO2)cc1OC (stereo not shown)
The “% Inhibition @ 10 uM” value of the first is lower: -1.15% for the first, 5.03% for the second.

Compared with `O=C(O)CSc1ccc(Cc2ccc(SCC(=O)O)cc2)cc1`, `O=C(O)C1(S(=O)(=O)c2ccccc2)CC1` is lower in “% Inhibition @ 10 uM” value: 3.25% for the first, -8.51% for the second.
